Out of some 310,000 compounds screened, about 2,200 (0.71%) showed an effect of 50% or more. The effect is printed as a negative number. The list shows a part of the results.
Biological target: human ether-à-go-go-related gene (hERG) potassium channel (human, UniProt Q12809)
Test: primary screen, population patch clamp on CHO cells stably expressing hERG

human ether-à-go-go-related gene (hERG) potassium channel, sequence (Q12809 whole entry, looked up): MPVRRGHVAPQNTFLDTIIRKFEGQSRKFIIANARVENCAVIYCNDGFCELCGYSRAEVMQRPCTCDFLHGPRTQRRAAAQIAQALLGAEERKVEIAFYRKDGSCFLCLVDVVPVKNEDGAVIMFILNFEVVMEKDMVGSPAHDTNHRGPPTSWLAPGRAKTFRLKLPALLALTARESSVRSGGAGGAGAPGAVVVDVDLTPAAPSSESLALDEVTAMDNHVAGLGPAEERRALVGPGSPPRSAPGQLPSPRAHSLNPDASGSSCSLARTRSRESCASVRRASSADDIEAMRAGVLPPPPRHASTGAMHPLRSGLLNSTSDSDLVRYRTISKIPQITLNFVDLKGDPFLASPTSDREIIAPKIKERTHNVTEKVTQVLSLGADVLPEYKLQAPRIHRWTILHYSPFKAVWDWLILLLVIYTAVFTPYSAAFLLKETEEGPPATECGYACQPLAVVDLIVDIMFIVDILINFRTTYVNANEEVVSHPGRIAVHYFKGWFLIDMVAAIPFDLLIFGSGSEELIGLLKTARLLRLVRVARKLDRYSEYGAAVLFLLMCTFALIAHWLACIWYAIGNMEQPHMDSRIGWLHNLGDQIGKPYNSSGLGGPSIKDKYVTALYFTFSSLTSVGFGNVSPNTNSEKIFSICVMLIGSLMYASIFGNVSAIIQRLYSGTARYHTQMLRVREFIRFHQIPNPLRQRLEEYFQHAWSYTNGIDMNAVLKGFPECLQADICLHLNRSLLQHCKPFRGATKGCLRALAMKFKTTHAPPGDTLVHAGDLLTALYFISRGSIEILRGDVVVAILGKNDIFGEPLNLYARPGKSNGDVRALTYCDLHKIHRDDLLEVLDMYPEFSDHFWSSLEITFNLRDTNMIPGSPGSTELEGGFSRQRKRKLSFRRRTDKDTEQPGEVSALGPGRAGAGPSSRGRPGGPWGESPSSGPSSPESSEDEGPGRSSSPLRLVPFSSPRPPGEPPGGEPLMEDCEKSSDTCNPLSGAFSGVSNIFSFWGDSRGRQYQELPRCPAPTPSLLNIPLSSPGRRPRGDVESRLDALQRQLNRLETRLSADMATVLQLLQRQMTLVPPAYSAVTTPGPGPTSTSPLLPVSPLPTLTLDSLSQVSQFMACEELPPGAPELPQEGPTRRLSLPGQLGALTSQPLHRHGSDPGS

Question: Which “hERG current change (%, negative = inhibition) at 1uM” value does the source give for `CC1CN(CCOc2ccc([N+](=O)[O-])cc2)CC(C)O1.O=C(O)C(=O)O` (stereo not shown) here?
Answer: Its value is -13.6%.

Question: For `Cc1cc(C)c2c(c1)cc(C)c1nnc(SCC(=O)Nc3ccc(S(=O)(=O)N4CCCCC4)cc3)n12`, which “hERG current change (%, negative = inhibition) at 1uM” value is on record?
Answer: The value was 14.2%.

Question: Which “hERG current change (%, negative = inhibition) at 1uM” value does the source give for `O=S1(=O)c2ccccc2N=NN1Cc1ccc(Cl)cc1` here?
Answer: Its value is 20.8%.

Question: Which “hERG current change (%, negative = inhibition) at 1uM” value does the source give for `Cc1ccc2nc(N3CCOCC3)c3nncn3c2c1` here?
Answer: The value was 3.23%.

Question: For `CSCc1ccc(C(=O)NCc2ccccc2)cc1`, which “hERG current change (%, negative = inhibition) at 1uM” value is on record?
Answer: The value was 7.45%.

Question: With `O=C(Cn1ccc(C(F)(F)F)n1)N/N=C/c1ccc(N2CCOCC2)cc1` as the molecule, how does the “hERG current change (%, negative = inhibition) at 1uM” value read?
Answer: The value was 14.8%.

Question: How did the “hERG current change (%, negative = inhibition) at 1uM” value turn out when `CCOc1ccc(OCCC(=O)OCC(=O)Nc2ccc(Cl)cn2)cc1` was run?
Answer: The value was 7.79%.

Question: For `C/C(=N\Nc1ccc(C(=O)O)cc1)c1ccc(Cl)s1`, which “hERG current change (%, negative = inhibition) at 1uM” value is on record?
Answer: The value was 11.3%.

Question: With `COc1ccc(NS(=O)(=O)c2ccc3c(c2)oc(=O)n3C)cc1Cl` as the molecule, how does the “hERG current change (%, negative = inhibition) at 1uM” value read?
Answer: The value was 15.3%.

Question: With `CCOCCCNC(=O)C1(O)c2cc(Br)ccc2NC(=O)N1c1ccc(CC)cc1` (stereo not shown) as the molecule, how does the “hERG current change (%, negative = inhibition) at 1uM” value read?
Answer: The value was 20%.

Question: With `CCCCn1c(O)c(C(CC)=NCc2cccnc2)c(=O)[nH]c1=O` as the molecule, how does the “hERG current change (%, negative = inhibition) at 1uM” value read?
Answer: The value was -13.1%.

Question: `CC(C(=O)N(C1CC1)C1(C(=O)Nc2ccccc2)CCCC1)N1C(=O)c2ccccc2C1=O` (stereo not shown) was tested. Which “hERG current change (%, negative = inhibition) at 1uM” value did it give?
Answer: The value was 10.9%.

Question: With `c1ccc2c(c1)c1cccc3ccc4cccc2c4c31` as the molecule, how does the “hERG current change (%, negative = inhibition) at 1uM” value read?
Answer: Its value is 8.22%.

Question: With `COc1ccc(N(CC(=O)N/N=C/c2ccc(F)cc2)S(=O)(=O)c2ccccc2)cc1` as the molecule, how does the “hERG current change (%, negative = inhibition) at 1uM” value read?
Answer: The value was 3.25%.

Question: Which “hERG current change (%, negative = inhibition) at 1uM” value does the source give for `O=C(C1CCCN(S(=O)(=O)c2ccc(Br)cc2)C1)N1CCN(Cc2ccccc2)CC1` (stereo not shown) here?
Answer: The value was -15.1%.

Question: `CC(C)(C)OC(=O)CN1C(=O)S/C(=C\c2ccc(-c3cccc(C(=O)O)c3)o2)C1=O` was tested. Which “hERG current change (%, negative = inhibition) at 1uM” value did it give?
Answer: The value was 6.33%.

Question: For `O=C(O)Cc1cn(Cc2cccc(Cl)c2)c2ccccc12`, which “hERG current change (%, negative = inhibition) at 1uM” value is on record?
Answer: The value was 14.6%.

Question: With `CCOc1ccc(Nc2cc3n(c(=O)n2)CCc2cc(OC)c(OC)cc2-3)cc1` as the molecule, how does the “hERG current change (%, negative = inhibition) at 1uM” value read?
Answer: The value was 9%.

Question: How did the “hERG current change (%, negative = inhibition) at 1uM” value turn out when `COc1ccc(-c2ocnc2C(=O)N2CCN(C(c3ccccc3)c3ccccc3)CC2)cc1` was run?
Answer: The value was 3.45%.

Question: With `Cc1ccc(CS(=O)(=O)CCC(=O)NCc2ccc(F)cc2)cc1` as the molecule, how does the “hERG current change (%, negative = inhibition) at 1uM” value read?
Answer: Its value is 9.81%.

Question: How did the “hERG current change (%, negative = inhibition) at 1uM” value turn out when `COCCCn1c(SCC(=O)Nc2oc(C)c3c(C)n[nH]c(=O)c23)nc2ccccc2c1=O` was run?
Answer: The value was 0.833%.

Question: With `O=c1[nH]c(Cc2cccc(C(F)(F)F)c2)nc2ccccc12` as the molecule, how does the “hERG current change (%, negative = inhibition) at 1uM” value read?
Answer: Its value is 14.2%.

Question: For `O=C(COc1ccccc1)NCCc1cnc[nH]1`, which “hERG current change (%, negative = inhibition) at 1uM” value is on record?
Answer: The value was 8.73%.

Question: For `CC1CCC(NC(=O)CN(C)CC(=O)Nc2ccc(F)cc2)CC1` (stereo not shown), which “hERG current change (%, negative = inhibition) at 1uM” value is on record?
Answer: Its value is 11.9%.

Question: Which “hERG current change (%, negative = inhibition) at 1uM” value does the source give for `CCN(CC)C(=O)CS(=O)CC(=O)Nc1cc(OCCOC)c(Cl)cc1Cl` (stereo not shown) here?
Answer: The value was 11.1%.

Question: Which “hERG current change (%, negative = inhibition) at 1uM” value does the source give for `Cc1ccc(S(=O)(=O)NCC(=O)OCc2csc(-c3ccccc3)n2)cc1` here?
Answer: Its value is 14.2%.

Question: With `COCC(=O)N1CCC(Oc2ccc(C(=O)N3C[C@@H](C)O[C@@H](C)C3)cc2)CC1` as the molecule, how does the “hERG current change (%, negative = inhibition) at 1uM” value read?
Answer: The value was -10.4%.

Question: Which “hERG current change (%, negative = inhibition) at 1uM” value does the source give for `CC(C)=CC(=O)Nc1nnc(C)s1` here?
Answer: The value was 4.93%.

Question: With `CCNC(=O)CCCOc1ccc(Cl)cc1Cl` as the molecule, how does the “hERG current change (%, negative = inhibition) at 1uM” value read?
Answer: The value was 17.4%.

Question: Which “hERG current change (%, negative = inhibition) at 1uM” value does the source give for `C=CCn1c(-c2cccc(OC)c2)n[nH]c1=S` here?
Answer: Its value is 10.8%.

Question: For `Cc1ccc(C(=O)OCC(=O)Nc2cc(F)ccc2F)cc1NC(=O)c1ccco1`, which “hERG current change (%, negative = inhibition) at 1uM” value is on record?
Answer: The value was 12.2%.

Question: With `CC(C)C(NC(=O)c1ccc(Cl)cc1)C(=O)NCC1CCCO1` (stereo not shown) as the molecule, how does the “hERG current change (%, negative = inhibition) at 1uM” value read?
Answer: Its value is 11.7%.

Question: `Cc1cc(C)n(C(C)CC(=O)Nc2ccc3c(c2)OCO3)n1` (stereo not shown) was tested. Which “hERG current change (%, negative = inhibition) at 1uM” value did it give?
Answer: The value was 14.8%.

Question: With `CO/N=C/C(=N\Nc1ccc(OC)cc1)C(=O)c1ccc(OC)cc1` as the molecule, how does the “hERG current change (%, negative = inhibition) at 1uM” value read?
Answer: Its value is 27.5%.

Question: `O=C(Nc1ccc(Cl)cn1)c1ccc2c(Cl)c3c(nc2c1)CCC3` was tested. Which “hERG current change (%, negative = inhibition) at 1uM” value did it give?
Answer: Its value is 9.73%.

Question: How did the “hERG current change (%, negative = inhibition) at 1uM” value turn out when `CCOC(=O)C1=C(N)OC2=C(C(=O)CCC2)C1c1ccccc1OCC` (stereo not shown) was run?
Answer: Its value is 7.18%.

Question: How did the “hERG current change (%, negative = inhibition) at 1uM” value turn out when `Cc1nnc(SCc2cnc(-c3ccccc3)o2)[nH]c1=O` was run?
Answer: Its value is 13.9%.

Question: Which “hERG current change (%, negative = inhibition) at 1uM” value does the source give for `CCCCNc1ccc(C(=O)OCCN(C)C)cc1.Cl` here?
Answer: Its value is 4.79%.

Question: Which “hERG current change (%, negative = inhibition) at 1uM” value does the source give for `COc1ccc(CNC(=O)COC(=O)c2cccnc2Nc2cccc(C(F)(F)F)c2)cc1` here?
Answer: The value was 12.4%.

Question: Which “hERG current change (%, negative = inhibition) at 1uM” value does the source give for `COc1cccc(OC)c1C(=O)NC(=S)Nc1ccc2c(c1)C(=O)N(C)C2=O` here?
Answer: Its value is 11%.

Question: How did the “hERG current change (%, negative = inhibition) at 1uM” value turn out when `Cc1ccc(NC(=O)COC(=O)Cc2c(F)cccc2Cl)cc1S(=O)(=O)N1CCOCC1` was run?
Answer: Its value is -0.158%.

Question: For `Cc1ccc(Nc2nc3c(s2)CCC3)c(C)c1`, which “hERG current change (%, negative = inhibition) at 1uM” value is on record?
Answer: Its value is 12.5%.

Question: For `O=c1cc(C(F)(F)F)nc(-n2[nH]c3c(c2=O)CCCC3)[nH]1`, which “hERG current change (%, negative = inhibition) at 1uM” value is on record?
Answer: The value was 16.8%.

Question: `COc1cc(S(=O)(=O)NC2CCCC2)ccc1F` was tested. Which “hERG current change (%, negative = inhibition) at 1uM” value did it give?
Answer: Its value is 5.66%.

Question: With `COc1ccc(-c2nc3ccccc3c(=O)o2)cc1` as the molecule, how does the “hERG current change (%, negative = inhibition) at 1uM” value read?
Answer: The value was 15.2%.

Question: How did the “hERG current change (%, negative = inhibition) at 1uM” value turn out when `Cc1cc(=O)c2cc(Cl)ccc2[nH]1` was run?
Answer: The value was 12.3%.

Question: Which “hERG current change (%, negative = inhibition) at 1uM” value does the source give for `O=C(CSc1ncn[nH]1)N/N=C/c1ccc(C(F)(F)F)cc1` here?
Answer: Its value is 13.8%.

Question: Which “hERG current change (%, negative = inhibition) at 1uM” value does the source give for `O=C(O)C1C2C=CC(C2)C1C(=O)Nc1ccc2c(c1)OCCO2` (stereo not shown) here?
Answer: The value was 11.5%.

Question: For `O=C(OCc1nnc(-c2ccccc2)o1)c1ccco1`, which “hERG current change (%, negative = inhibition) at 1uM” value is on record?
Answer: Its value is 2.86%.

Question: How did the “hERG current change (%, negative = inhibition) at 1uM” value turn out when `O=C(Cn1[nH]c(=O)c2ccccc2c1=O)OCC(=O)c1ccccc1` was run?
Answer: Its value is 13.3%.

Question: `Cc1cc(Nc2nc3ccccc3[nH]c2=O)n(-c2ccccc2)n1` was tested. Which “hERG current change (%, negative = inhibition) at 1uM” value did it give?
Answer: The value was -4.75%.

Question: Which “hERG current change (%, negative = inhibition) at 1uM” value does the source give for `C=CCOc1ccc(C(=O)c2ccccc2)c(OCC(=O)NC2(C#N)CCCC2)c1` here?
Answer: Its value is 9.68%.

Question: How did the “hERG current change (%, negative = inhibition) at 1uM” value turn out when `O=C(CSc1nnnn1Cc1ccccc1)NCC(=O)c1ccccc1` was run?
Answer: Its value is 8.34%.

Question: Which “hERG current change (%, negative = inhibition) at 1uM” value does the source give for `Cc1ccc(C)c(OCc2cc(C(=O)N3C[C@H]4C[C@@H](C3)c3cccc(=O)n3C4)no2)c1` here?
Answer: The value was 4.66%.

Question: How did the “hERG current change (%, negative = inhibition) at 1uM” value turn out when `OC(CNCc1ccc2c(c1)OCO2)COc1ccccc1` (stereo not shown) was run?
Answer: The value was 1.66%.

Question: `Cc1cccc(NC(=O)CNC(=O)Cc2ccc(S(=O)(=O)N3CCOCC3)s2)c1C` was tested. Which “hERG current change (%, negative = inhibition) at 1uM” value did it give?
Answer: The value was 8.74%.

Question: `O=C(Cn1cc2c(n1)CCCCC2)NCCCN1CCOCC1` was tested. Which “hERG current change (%, negative = inhibition) at 1uM” value did it give?
Answer: Its value is 11.1%.

Question: How did the “hERG current change (%, negative = inhibition) at 1uM” value turn out when `Cn1c(SCc2ccccc2[N+](=O)[O-])nnc1-c1cccnc1` was run?
Answer: The value was 10.7%.

— publication PMC4336329 (PLoS ONE, 2015)
